Experimental data as given in the supplement of paper PMC10369915.
This is one part of the list. Rule as the data show it: active = 3.2 or more and inactive = the rest. Most of these values are background signal.

Columns and labels:
Assay in all cases: enrichment score (SH2-bound / input frequency) (ratio); bacterial display of known human phosphotyrosine sites (pTyr-Var adds point mutants) read by sequencing; higher = stronger binding; tyrosines were phosphorylated by kinases first
Details in all cases: peptide library: Human pTyr
[1] = target: SHP2 C-SH2 domain E139D
[2] = target: SHP2 C-SH2 domain wild-type
[3] = target: SHP2 N-SH2 domain L43F
[4] = target: SHP2 N-SH2 domain T42A
[5] = target: SHP2 N-SH2 domain T52S
[6] = target: SHP2 N-SH2 domain wild-type

Measured: enrichment score
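Also: displayed peptides selected on beads carrying the immobilized SH2 domain, with library peptides lacking any tyrosine serving as negative controls.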

DTGENPIYKSAVTTV [ITB1_HUMAN_783]
inactive: [1] 0.6 | [2] 0.581 | [3] 0.532 | [4] 0.577 | [5] 0.612 | [6] 0.676

KQDSNPLYKSAITTT [ITB7_HUMAN_778]
inactive: [1] 0.773 | [2] 0.545 | [3] 0.548 | [4] 0.547 | [5] 0.771 | [6] 0.7

ARLSVEIYDRREASR [ITGB7_HUMAN_753_YA]
inactive: [1] 1.68 | [2] 1.36 | [3] 1.26 | [4] 1.46 | [5] 1.64 | [6] 1.41

TSTIMTDYNPNYCFA [ALK_HUMAN_1092]
inactive: [1] 1.03 | [2] 0.977 | [3] 1.09 | [4] 1.17 | [5] 1.05 | [6] 1.06

ETVVIALYDAQTNDP [ITK_HUMAN_180_YA]
inactive: [1] 0.915 | [2] 0.821 | [3] 0.795 | [4] 0.831 | [5] 0.908 | [6] 0.8

KVKDPTEYTGPESAV [ITPR2_HUMAN_2607_YA]
inactive: [1] 0.963 | [2] 1.04 | [3] 0.888 | [4] 0.861 | [5] 1.12 | [6] 1.07

EYQNKLIYLVPEKQL [ITSN2_HUMAN_553]
inactive: [1] 0.734 | [2] 0.932 | [6] 1.44
active: [3] 9.35 | [4] 3.62 | [5] 5.49

EAQNKLIYLVPEKQL [ITSN2_HUMAN_553_YA]
inactive: [1] 0.866 | [2] 0.827 | [6] 1.64
active: [3] 13.4 | [4] 4.45 | [5] 8.14

IETDKEAYTVKDDRD [JAK1_HUMAN_1035_YA]
inactive: [1] 1.21 | [2] 1.04 | [3] 1.1 | [4] 1.15 | [5] 1.09 | [6] 1.22

VLPQDKEYYKVKEPG [JAK2_HUMAN_1007]
inactive: [1] 1.61 | [2] 1.26 | [3] 1.28 | [4] 1.4 | [5] 1.46 | [6] 1.45

VLPQDKEYAKVKEPG [JAK2_HUMAN_1007_YA]
inactive: [1] 1.05 | [2] 1.28 | [3] 0.854 | [4] 0.821 | [5] 1.2 | [6] 0.988

VLARIRFYFPRWACS [JAK2_HUMAN_119_YA]
inactive: [1] 1 | [2] 0.917 | [3] 1.08 | [4] 0.909 | [5] 0.908 | [6] 1.23

VSLIDGYYRLTADAH [JAK2_HUMAN_373]
active: [1] 7.95 | [2] 15.9
inactive: [3] 0.68 | [4] 0.858 | [5] 0.759 | [6] 0.744

VSLIDGAYRLTADAH [JAK2_HUMAN_373_YA]
inactive: [1] 0.462 | [2] 0.412 | [3] 0.496 | [4] 0.463 | [5] 0.488 | [6] 0.448

NSLISSDYELLSDPT [JAK3_HUMAN_785]
inactive: [1] 0.666 | [2] 0.49 | [3] 0.73 | [4] 0.486 | [5] 0.436 | [6] 0.598

VYTNLSSYSPASASS [JUNB_HUMAN_188]
inactive: [1] 0.619 | [2] 0.781 | [3] 0.464 | [4] 0.566 | [5] 0.536 | [6] 0.561

AAGTQQPYTDGVRME [JUP_HUMAN_550]
inactive: [1] 0.604 | [2] 0.548 | [3] 0.68 | [4] 0.694 | [5] 0.5 | [6] 0.677

VSSAASVYAGAGGSG [K1C18_HUMAN_36]
inactive: [1] 0.599 | [2] 0.534 | [3] 0.546 | [4] 0.548 | [5] 0.578 | [6] 0.494

DTSNFDDYEEEEIRV [KAPCA_HUMAN_331]
inactive: [1] 1.27 | [2] 1.16 | [3] 1.2 | [4] 1.1 | [5] 1.5 | [6] 1.57

KHKATEQYAAMKILD [KAPCB_HUMAN_69_YA]
inactive: [1] 1.95 | [2] 2.11 | [3] 1.92 | [4] 1.69 | [5] 2.39 | [6] 2.73

CTRFTEEYQLFEELG [KCC2A_HUMAN_13]
inactive: [1] 1.2 | [2] 1.48 | [3] 1.21 | [4] 1.27 | [5] 1.38 | [6] 1.64

FTDEAQLYEDIGKGA [KCC2B_HUMAN_17_YA]
inactive: [1] 0.807 | [2] 0.753 | [3] 0.949 | [4] 0.808 | [5] 0.676 | [6] 0.707

SFDAILYYYQSGGRI [KCNA3_HUMAN_162]
inactive: [1] 1.96 | [2] 1.78 | [3] 1.78 | [4] 1.8 | [5] 1.75 | [6] 2.14

FGMARDIYRASAARK [ALK_HUMAN_1278_YA]
inactive: [1] 0.997 | [2] 0.752 | [3] 0.754 | [4] 0.854 | [5] 0.975 | [6] 0.872

FDAILAAYQSGGRIR [KCNA3_HUMAN_163_YA]
inactive: [1] 0.707 | [2] 0.913 | [3] 0.734 | [4] 0.893 | [5] 0.763 | [6] 0.864

EGEEQSQYMHVGSCQ [KCNA3_HUMAN_499]
inactive: [1] 1.03 | [2] 0.815 | [3] 0.886 | [4] 1.17 | [5] 1.1 | [6] 1.18

GKLHYPRYECISAYD [KCND3_HUMAN_108]
inactive: [1] 1.54 | [2] 1.56 | [3] 1.63 | [4] 1.48 | [5] 1.77 | [6] 2

GDCCYEEYKDRKREN [KCND3_HUMAN_136]
inactive: [1] 0.689 | [2] 0.618 | [3] 0.753 | [4] 0.682 | [5] 0.701 | [6] 0.629

SKTKEGKYRVDFHNF [KCNJ1_HUMAN_337]
inactive: [1] 1.74 | [2] 2.05 | [3] 1.53 | [4] 1.62 | [5] 1.48 | [6] 1.89

AMTQEGEYLPLDQRD [KCNJ4_HUMAN_234_YA]
inactive: [1] 0.673 | [2] 0.662 | [3] 0.779 | [4] 0.722 | [5] 0.847 | [6] 0.868

ARGIWHNYDKTFLIW [KCRS_HUMAN_255]
inactive: [1] 1.41 | [2] 2.5 | [3] 1.33 | [4] 1.51 | [5] 1.89 | [6] 1.96

ANLSEDEYYSEEERN [KDM1A_HUMAN_135]
inactive: [1] 1.38 | [2] 1.08 | [3] 0.861 | [4] 1.26 | [5] 1.25 | [6] 1.04

ITPEDRKYGTTNLHL [KDM3A_HUMAN_1114]
inactive: [1] 0.775 | [2] 0.705 | [3] 0.755 | [4] 0.747 | [5] 0.704 | [6] 0.838

VLDIPSKYDWSGAEE [KDM5A_HUMAN_1595]
inactive: [1] 1.03 | [2] 0.899 | [3] 0.658 | [4] 0.843 | [5] 0.808 | [6] 0.785

ARPVKGAYREHPYGR [KHDR1_HUMAN_435]
inactive: [1] 2.49 | [2] 1.98 | [3] 2.12 | [4] 1.74 | [5] 1.83 | [6] 2.14

ARPVKGAYREHPAGR [KHDR1_HUMAN_435_YA]
inactive: [1] 2.27 | [2] 2.47 | [3] 2.41 | [4] 2.6 | [5] 2.28 | [6] 3.11
